Results as given in PubChem BioAssay AID624418 (National Center for Advancing Translational Sciences (NCATS), 2012).
In all, about 410,000 compounds went through this assay and about 530 (0.13%) were called active. The shares of active, inactive and inconclusive entries below differ from those in the screen. Calls follow the shape of the dose curve; as a rule, active = well fitted inhibition curve with a large enough effect; inconclusive = small, poorly fitted or top-dose-only effect, or another doubt; inactive = no such curve, though single readings can be large or run the other way. A potency beside an inconclusive call is a rough fit, not a confirmed value.

assay: qHTS of GLP-1 Receptor Inverse Agonists: Cytotox Screen; details: HEK293 cAMP-luciferase reporter cells, luminescence, 24 h; activity change, negative = inhibition: at 38.3 µM (top of the series) unless noted
Outline: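 Quantitative HTS format, 1536 wells, 200 cells/uL seeded. Compounds: 23 nL, 24 h, 37 °C. Detection: luciferase reagent, luminescence at 12 min RT; decreased signal taken as cytotoxic.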
% is scaled to controls: 0 for no effect and ±100 for the full control effect; potency is read from the fitted curve at half-maximal effect.

| Compound | Potency | activity change, negative = inhibition |
| --- | --- | --- |
| COC(=O)C1=C(C)NC(=S)NC1c1ccc(N(CCCl)CCCl)cc1Cl (centres undefined) | inconclusive: 10 µM [inhibitor, partial curve, poor fit] |  |
| Clc1cccc(/C=N\Nc2nccs2)c1 | inconclusive: 10 µM [inhibitor, partial curve, poor fit] |  |
| Nc1c(Cl)cc(C2=NCCn3nc4cc(C(F)(F)F)ccc4c32)cc1Cl | inconclusive: 28.2 µM [inhibitor, single point] |  |
| c1cc2c(cc1C1CCCCC1)c1c3n2CCCNC3CCC1 (centres undefined) | inconclusive: 28.2 µM [inhibitor, single point] |  |
| O=C1CN=C(c2ccccc2)c2cc(Br)ccc2N1Cc1cc(=O)n2ccccc2n1 | inconclusive: 10 µM [inhibitor, partial curve] |  |
| CN1CCN(C2=Cc3cc(Cl)ccc3Sc3cc(F)ccc32)CC1 | inconclusive: 28.2 µM [inhibitor, single point] |  |
| Cc1nccc(-c2cccc(N/N=C(\C#N)C(=O)c3ccccc3)c2)n1 | inconclusive: 31.6 µM [inhibitor, single point] |  |
| CC(C)(C)OC(=O)NCCCCCNC(=O)c1[nH]cnc1C(=O)Nc1ccc(Cl)cc1 | inconclusive: 10 µM [inhibitor, partial curve, poor fit] |  |
| Cc1ccc(C)c(CN2CCC(CNC(=O)Nc3ccc(Br)cc3F)CC2)c1 | inconclusive: 28.2 µM [inhibitor, single point] |  |
| O=c1[nH]c(=S)n(-c2ccc(Br)cc2)c(O)c1C=Nc1ccc(N2CCOCC2)cc1 |  | inactive: 8.09% |
| CCN1CCN(c2ccc(N)cc2)CC1 | inconclusive: 12.6 µM [inhibitor, single point] |  |
| O=[N+]([O-])c1cc(S(=O)(=O)NCCN2CCOCC2)ccc1Sc1nnnn1-c1ccccc1 | inconclusive: 10 µM [inhibitor, partial curve, poor fit] |  |
| CN(C)CCN(C(=O)C1CCCCC1)c1nc2cc3c(cc2s1)OCCO3 | inconclusive: 28.2 µM [inhibitor, single point] |  |
| CCN(CC)CC(O)c1ccc(C2CCCC2)cc1 (centres undefined) |  | inactive: 10.1% |
| CCOC(=O)C(O)(c1ccc(NC(=S)NC(=O)c2ccc(Cl)cc2Cl)c(C)c1)C(F)(F)F (centres undefined) | inconclusive: 28.2 µM [inhibitor, single point] |  |
| C[C@@H]1CN([C@@H](C)CO)C(=O)c2cc(NC(=O)CCC(F)(F)F)ccc2O[C@H]1CN(C)Cc1ccc(Cl)c(Cl)c1 | inconclusive: 28.2 µM [inhibitor, single point] |  |
| CCOc1cc(CNC(C)(C)CO)cc(Br)c1OCc1ccc(Cl)cc1Cl | inconclusive: 28.2 µM [inhibitor, single point] |  |
| CCN(CC)C(=O)c1ccc2c(c1)C1C(Cl)C(Sc3ccccc3[N+](=O)[O-])CC1C(C(=O)O)N2 (centres undefined) |  | inactive: -1.95% |
| CCOc1cccc(CNCCc2c(C)[nH]c3ccc(OC(F)(F)F)cc23)c1O | inconclusive: 10 µM [inhibitor, single point] |  |
| Cc1cc(C)c(C(=O)/C=C/c2ccc(C(C)C)cc2)c(=O)[nH]1 | inconclusive: 31.6 µM [inhibitor, single point] |  |

| Compound | Potency | activity change, negative = inhibition |
| --- | --- | --- |
| CC[C@@H](C(=O)[C@@H](C)[C@@H](O)[C@H](C)CCc1ccc(C)c(O)c1C(=O)O)[C@H]1O[C@](CC)([C@H]2CC[C@](O)(CC)[C@H](C)O2)C[C@@H]1C | active: 10 µM |  |
| COC(=O)CN1C(=O)S/C(=C/c2cc(C)n(C)c2C)C1=O | inconclusive: 8.91 µM [inhibitor, partial curve] |  |
| CC(C)CC(=O)NC(NC(=S)Nc1sc2c(c1C#N)CCCC2)C(Cl)(Cl)Cl (centres undefined) | inconclusive: 28.2 µM [inhibitor, single point] |  |
| Cc1cccc(-n2c(C)nc3cc(C(=O)N4CCC5(CC4)OCCO5)ccc32)c1 | inconclusive: 14.1 µM [inhibitor, single point] |  |
| Cc1ccc(C2=NC(C(F)(F)F)(C(F)(F)F)c3c(n(-c4ccc(F)cc4)c(=O)[nH]c3=O)N2)cc1 | inconclusive: 10 µM [inhibitor, partial curve, poor fit] |  |
| O=C(/C=C/c1cccc(Cl)c1)c1ccc([N+](=O)[O-])o1 | inconclusive: 10 µM [inhibitor, partial curve, poor fit] |  |
| COc1cc(C2c3cc4c(cc3OC(C)(N3CCCC3)C2C)OCO4)cc(OC)c1OC (centres undefined) | inconclusive: 0.708 µM [inhibitor, full curve] |  |
| CC(=O)Nc1cccc(C(=O)/C=C/c2ccc(C)cc2)c1 | inconclusive: 10 µM [inhibitor, partial curve, poor fit] |  |
| CN(C)C(=O)Oc1ccc2ccccc2c1Cl | inconclusive: 3.55 µM [inhibitor, full curve] |  |
| COC(=O)c1cc2ccsc2n1CC(=O)Nc1cc(Cl)ccc1OC | inconclusive: 11.2 µM [inhibitor, single point] |  |
| O=C(CF)N(O)c1ccc(C=Cc2ccccc2)cc1 | inconclusive: 1.78 µM [inhibitor, full curve, poor fit] |  |
| COc1ccccc1NS(=O)(=O)c1cccc(NC(=O)Nc2cccc(Cl)c2)c1 | inconclusive: 11.2 µM [inhibitor, single point] |  |
| CCC(CO)Oc1cc(NCc2cccc(O)c2)c2ncn(C(C)C)c2c1 (centres undefined) | inconclusive: 28.2 µM [inhibitor, single point] |  |
| COc1cc(C(=O)Oc2ccccc2/C=N/NC(=O)c2ccc(C)cc2)cc(OC)c1OC | inconclusive: 1.12 µM [inhibitor, full curve, poor fit] |  |
| O[C@@H]1[C@@H](O)C=C2CCN3Cc4cc5c(cc4[C@H]1C23)OCO5 (some centres undefined) | inconclusive: 4.47 µM [inhibitor, full curve] |  |
| COc1ccc(-c2sc3cc(OC)c(OC)cc3c2-c2ccc(O)cc2)cc1 | inconclusive: 10 µM [inhibitor, single point] |  |
| Cn1c(O)c(/C=C2/C=CC=N2)c(=O)[nH]c1=O | inconclusive: 11.2 µM [inhibitor, partial curve] |  |
| COc1ccc(NC(=O)CCS(=O)(=O)c2nc(-c3cccs3)cc(C(F)(F)F)n2)cc1 | inconclusive: 28.2 µM [inhibitor, single point] |  |
| O=c1oc2ccccc2c(O)c1C(c1ccc([N+](=O)[O-])cc1)c1c(O)c2ccccc2oc1=O | inconclusive: 14.1 µM [inhibitor, single point] |  |
| FC(F)(F)c1nnc(-c2ccccc2)nc1Sc1ccccc1 | inconclusive: 28.2 µM [inhibitor, single point] |  |

| Compound | Potency | activity change, negative = inhibition |
| --- | --- | --- |
| CCN(CC)CCNc1ccc(CO)c2sc3ccccc3c(=O)c12 | inconclusive: 11.2 µM [inhibitor, single point] |  |
| CCC12CN3CC(CC)(CN(C1)C3c1ccccn1)C2=O (centres undefined) |  | inactive: -9.87% |
| COC(=O)c1ccc(COc2ccccc2/C=N/NS(=O)(=O)c2ccc(C)cc2)cc1 | inconclusive: 11.2 µM [inhibitor, single point] |  |
| COc1ccc(S(=O)(=O)Nc2ccccc2OC)cc1N=Nc1c(O)[nH]c(=S)[nH]c1=O | inconclusive: 12.6 µM [inhibitor, partial curve, poor fit] |  |
| c1ccc2c(CCNCc3ccc4c(c3)OCO4)c[nH]c2c1 | inconclusive: 0.447 µM [inhibitor, full curve, poor fit] |  |
| COc1ccc(-n2nnnc2C(c2ccccc2OC(F)(F)F)N2CCC(n3c(=O)[nH]c4ccccc43)CC2)cc1 (centres undefined) | inconclusive: 11.2 µM [inhibitor, single point] |  |
| CN(c1ccc(C(=O)NCCSCc2c(F)cccc2Cl)cc1)S(C)(=O)=O | inconclusive: 11.2 µM [inhibitor, partial curve, poor fit] |  |
| CC12CC(c3ccccc3O1)N(C(=O)c1ccco1)C(=S)N2c1ccc(F)cc1 (centres undefined) | inconclusive: 10 µM [inhibitor, partial curve, poor fit] |  |
| Cc1cc(OCCCN2CCC(C(O)(c3ccccc3)c3ccccc3)CC2)ccc1Br | inconclusive: 22.4 µM [inhibitor, single point] |  |
| CCC1C(c2ccccc2)NC(c2ccccc2)CC1(O)c1ccc(F)cc1 (centres undefined) | inconclusive: 28.2 µM [inhibitor, single point] |  |
| COc1ccc(CCC(C)NCCc2ccccc2)cc1 (centres undefined) |  | inactive: 0.749% |
| O=C1C(C=Nc2ccccc2O)=C(O)c2ccccc21 | inconclusive: 11.2 µM [inhibitor, single point] |  |
| COc1ccc(C(=O)c2coc3c2C(=O)C(=O)c2ccccc2-3)cc1 | inconclusive: 28.2 µM [inhibitor, single point] |  |
| CCCOP(=O)(OCCC)C(Nc1ccc(C(C)C)cc1)c1ccc([N+](=O)[O-])cc1 (centres undefined) | inconclusive: 7.94 µM [inhibitor, partial curve, poor fit] |  |
| CCc1nc2c(OCc3ccc(Cl)cc3Cl)cccn2c1N(C)C(=O)C(C)C | inconclusive: 28.2 µM [inhibitor, single point] |  |
| CC1CCCC(C)N1/N=C/c1c[nH]c2ccc(Br)cc12 (centres undefined) | inconclusive: 11.2 µM [inhibitor, partial curve, poor fit] |  |
| CN(C)CCOC(=O)c1cn(Cc2ccccc2)c2ccccc12 | inconclusive: 28.2 µM [inhibitor, single point] |  |
| Cc1ccsc1C(=O)C1CCCN(Cc2cccn2-c2ccccn2)C1 (centres undefined) | inconclusive: 8.91 µM [inhibitor, partial curve] |  |
| COc1ccc(C(=O)NC(=S)Nc2cccc(S(=O)(=O)N3CCOCC3)c2)cc1 | inconclusive: 11.2 µM [inhibitor, single point] |  |
